Results taken from publication PMC7819943, “Rice protein-binding microarrays: a tool to detect cis-acting elements near promoter regions in rice”.
This is one part of the list.

Molecular target: T1, OsWOX13 (Oryza sativa, UniProt Q5QMM3 1-267)
T1 sequence: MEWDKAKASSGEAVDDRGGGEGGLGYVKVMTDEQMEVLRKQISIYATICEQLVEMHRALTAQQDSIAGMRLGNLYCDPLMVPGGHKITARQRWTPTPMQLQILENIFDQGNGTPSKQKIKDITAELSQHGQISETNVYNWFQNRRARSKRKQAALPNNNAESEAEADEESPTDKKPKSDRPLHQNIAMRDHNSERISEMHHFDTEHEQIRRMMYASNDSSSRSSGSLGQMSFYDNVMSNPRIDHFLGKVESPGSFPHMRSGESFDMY
Test: protein-binding microarray (RPBM); PBS, 2% BSA, 51.3 ng/ul salmon testes DNA, 50 uM zinc acetate, 200 nM TF, 25 C, 1 h; high values mean tight binding
Conditions: protein: recombinant; tags: N-terminal polyhistidine and DsRed monomer fusion (pET32a); label: CyDye5-dUTP incorporated in the synthesized complementary strand; 3' TTTTT single-stranded linker to array surface; dsDNA, one strand shown
In short: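 Binding signal is reported as fluorescence intensity per feature (arbitrary units) from an Axon 4000B scanner. Incubation used 200 nM of each Ni–NTA-purified, N-terminally polyhistidine- and DsRed-fused transcription factor from E. coli BL21-CodonPlus on a double-stranded custom Agilent array for 1 h at 25 °C, with 50 µM zinc acetate in the buffer, followed by washing.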

Sequence | binding signal
TTTTGGAATTGATACTCGATATTTCTGCCAAGGAGAGGCTCGGAGTCACCTAGTGCAG | 7220 fluorescence intensity (a.u.)
ATTTTGATTTGCTCTCGGCTCTCTCGTTCGTGTGCACATCCGGAGTCACCTAGTGCAG | 26200 fluorescence intensity (a.u.)
TGAAAATTTTGTCGGAAATTTATCAGTGTATCAACTGTCTCGGAGTCACCTAGTGCAG | 6470 fluorescence intensity (a.u.)
AGTATAATTATGTTTAGAATGGATTAATTGTAATGTAAAGCGGAGTCACCTAGTGCAG | 38600 fluorescence intensity (a.u.)
ATTAATTAATTAATTAATTAATACAAGTTGGCAACAGCAGCGGAGTCACCTAGTGCAG | 43300 fluorescence intensity (a.u.)
CTATATCTTGATGCTTTGTTGATTAGTACCATGGATTGGCCGGAGTCACCTAGTGCAG | 6900 fluorescence intensity (a.u.)
CTAGCTAATTAAGCCAGAATAATGTCATCTTATTCTCAAACGGAGTCACCTAGTGCAG | 11200 fluorescence intensity (a.u.)
TACGTGATTGAAAGAAATGTTTAATAAACAAATGATGTGACGGAGTCACCTAGTGCAG | 18000 fluorescence intensity (a.u.)
CGTGATTTCAAGGTGATTCAAAATCAGATTTCGAGAAATTCGGAGTCACCTAGTGCAG | 12200 fluorescence intensity (a.u.)
ATGAGTACTAATTTTGATTTACGTCGTTAACGTTTTGAAACGGAGTCACCTAGTGCAG | 12000 fluorescence intensity (a.u.)
AGGTTCCACATCACGATGCCAATCATAGTAGCCAAATCAACGGAGTCACCTAGTGCAG | 3610 fluorescence intensity (a.u.)
TTTAAACAAGATCAATTTAACTTATAAACATTTGGGAGTGCGGAGTCACCTAGTGCAG | 6550 fluorescence intensity (a.u.)
CATTGGAATTGATGATCACATTATACATGGATTTGACCCACGGAGTCACCTAGTGCAG | 30600 fluorescence intensity (a.u.)
TTCGCTATTGGTTGATTTGTTAATTTAGCGGGGTCATTAGCGGAGTCACCTAGTGCAG | 9460 fluorescence intensity (a.u.)
GAATGATTGAGAGAGCTGTTTAGATTATAACCAAAATAAACGGAGTCACCTAGTGCAG | 15600 fluorescence intensity (a.u.)
GTAAAATATATTATTGTGATTAGAATGGCACCAACAATATCGGAGTCACCTAGTGCAG | 14600 fluorescence intensity (a.u.)
TTCTACACAACGATAATTGGCTGTGCAGCCTGGCGTATAACGGAGTCACCTAGTGCAG | 11500 fluorescence intensity (a.u.)
TTTAAATGATGTATTCTGCAGTGGGTTCAGTGTGACAAGTCGGAGTCACCTAGTGCAG | 6530 fluorescence intensity (a.u.)
TATATATATATATATATATATATAAGTGAATTTTCATAGTCGGAGTCACCTAGTGCAG | 3180 fluorescence intensity (a.u.)
AACACGTAAATTTATAGTACGATGATACCGTACGAGATTGCGGAGTCACCTAGTGCAG | 5600 fluorescence intensity (a.u.)
AGGCCGTCCTTAGTCAATCAAGACCGTCCATTCTCCCGAACGGAGTCACCTAGTGCAG | 6830 fluorescence intensity (a.u.)

Sequence | binding signal
CATATCCTAATTGGCTAGTAGTATGGATTTAGACAGACAACGGAGTCACCTAGTGCAG | 26500 fluorescence intensity (a.u.)
GAGATTAGCTAACAAAATGTGTATATCCCCATGAGATTGGCGGAGTCACCTAGTGCAG | 5740 fluorescence intensity (a.u.)
ATTCAAAGGTTAATTGGATCATACCATTGCAAAATTACCGCGGAGTCACCTAGTGCAG | 6760 fluorescence intensity (a.u.)
ACCTACTAATAACTAGTTAATTGTCTATTGTGCCCCTAGTCGGAGTCACCTAGTGCAG | 21700 fluorescence intensity (a.u.)
ACTATTTTATTTCCCATTGACAGATTATACAGTGACATGCCGGAGTCACCTAGTGCAG | 9790 fluorescence intensity (a.u.)
TTTAATTGGACATTTATTCTGTCATGATATTTTGAATATTCGGAGTCACCTAGTGCAG | 44300 fluorescence intensity (a.u.)
AATAAATTTATATAGAAAATAATCTAAACGATTTATAATACGGAGTCACCTAGTGCAG | 3680 fluorescence intensity (a.u.)
ATGCGATTGACTAATTAATTGACTGGGCTTTGGCATTGGGCGGAGTCACCTAGTGCAG | 65500 fluorescence intensity (a.u.)
ATAAATTTATATTTGAAAACTTTTAACTTAGATTTGAAAACGGAGTCACCTAGTGCAG | 17100 fluorescence intensity (a.u.)
TGCGGTGATTTGAACCTTGCTGCTGTGATTTCAGTTTGGTCGGAGTCACCTAGTGCAG | 19200 fluorescence intensity (a.u.)
AAAAGCATAATTATACACAGTAATAGGCGTTCAAGATATTCGGAGTCACCTAGTGCAG | 5610 fluorescence intensity (a.u.)
CGTGTCAACAATGAATAATTTGTTTCTCAAATTAGTCCGACGGAGTCACCTAGTGCAG | 4430 fluorescence intensity (a.u.)
TAAAATTGTCTGTGTTGTTTTGCCGTATAATCGGGATGGCCGGAGTCACCTAGTGCAG | 3220 fluorescence intensity (a.u.)
TTAATTTAAGATAGAAAGAAATTGTTCGCTTCACCTAGAACGGAGTCACCTAGTGCAG | 5410 fluorescence intensity (a.u.)
GAAGATTGATACTATTACAACAAAGGACACAAAATGATTCCGGAGTCACCTAGTGCAG | 33500 fluorescence intensity (a.u.)
TTTAAAATGATAATTTAACGATATATAACAATAGACGGCACGGAGTCACCTAGTGCAG | 24900 fluorescence intensity (a.u.)
GAATTCCAATCAGAGACACGTCCATGTTCCATCATCGCCCCGGAGTCACCTAGTGCAG | 8960 fluorescence intensity (a.u.)
GGTGTGTATGATCTAAACATAATTAATATATTATAACACCCGGAGTCACCTAGTGCAG | 5340 fluorescence intensity (a.u.)
TGTGATTTTCTTGTGATTGGGATGTATGGTAATGCTAGGGCGGAGTCACCTAGTGCAG | 48000 fluorescence intensity (a.u.)
ATCATGCTCTTTGATTAATTTGATGTCAAGATCGATCGATCGGAGTCACCTAGTGCAG | 12600 fluorescence intensity (a.u.)
TATAATTATTAAGTACTCCCTCCGTTCCAAAATATAGTAACGGAGTCACCTAGTGCAG | 3630 fluorescence intensity (a.u.)
